Values marked as one replicate rest on one cluster of the flow cell; about a third of the high ones do not repeat.
Tested on: ATP
Experiment: switch fluorescence ratio, 500 uM ATP over buffer (Cy3 cluster intensity, sum of 5 cycles each) (fold (ratio)); higher = stronger signal-on switching upon ATP binding; sequences stand for … in TCGTCGGCAGCGTCAGATGTGTATAAGAGACAGTTTTTTTTTTTTTTTTTTTTTTTTT…TC
Conditions: aptamer strand: ATP DNA aptamer (quencher-CACCTGGGGGAGTATTGCGGAGGAAGG + anchor), 100 nM annealed; ATP concentration: 500 uM; one replicate
Outline: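 For every switch-domain sequence, the fluorescence ratio is the mean of per-cluster values, each being summed target-cycle Cy3 intensity over summed buffer-cycle Cy3 intensity. Clusters outside 100-1000 RFU were excluded. On a modified Illumina MiSeq flow-cell, the Cy3-labelled switching-strand clusters were annealed to 100 nM quencher-labelled ATP aptamer, imaged in selection buffer and then after 15 min with 500 uM ATP at 22 °C. Five such cycles were run, with NaOH stripping and re-annealing between them.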
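Further: ATP exposure 15 min at 22 °C before imaging.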

| Sequence | switch fluorescence ratio |
| --- | --- |
| GATGGGGTTA | 1.01 |
| GGTCCATCGT | 0.954 |
| GGGAGTAGTC | 0.983 |
| AACTGTCGGA | 0.985 |
| GGAATAGGCG | 1.02 |
| TCATTTGAGC | 1.03 |
| AGTTGGGGCA | 1.04 |
| GGTCGGCCAT | 1.01 |
| CATCAGGTGT | 4.55 |
| ATACCTCGAA | 1.01 |
| TATTTGGCA | 0.973 |
| GCACGAGGTG | 1.13 |
| AGATGTTGCG | 0.976 |
| TCGTCTGACA | 0.976 |
| AGGATATGTA | 0.94 |
| CGCAGTTGCA | 0.973 |
| TTACTAGGGA | 1.03 |
| AGAGTGAGCA | 0.984 |
| AAAAGTGCAG | 0.994 |
| AAGGCCCCAT | 1.02 |
| TGCGAGTGTG | 1.01 |
| GGCTTGCATC | 0.987 |

| Sequence | switch fluorescence ratio |
| --- | --- |
| GTTGGTTCGA | 0.969 |
| CTATATTGCC | 1.02 |
| CTTAGATTC | 1 |
| CGATGGCGTA | 0.986 |
| TGTAGTGATG | 0.949 |
| AAGGACTTTA | 1.01 |
| AACGTCTGAC | 1.08 |
| ACGGTGTGTG | 0.976 |
| TAGGCTTCGC | 0.949 |
| AAAAGATAAT | 0.991 |
| GTATTTCATC | 1.01 |
| TGCGACGAGT | 0.986 |
| GGTTCAGTTT | 0.994 |
| ATGTGCGGGA | 1.03 |
| AATTCCCTTA | 0.976 |
| TATTAAATGA | 0.955 |
| ACCGGTTTCG | 0.993 |
| ATATGCTCTA | 1 |
| AGAATTAGGG | 0.976 |
| GTGGTTATAT | 1.03 |
| CAGAGCTCGG | 1.02 |
| TCACTGATGA | 1.05 |

| Sequence | switch fluorescence ratio |
| --- | --- |
| ATCTGTGTTA | 0.986 |
| GTATTAGCAA | 1.14 |
| TAATCGAGCT | 0.995 |
| ACATTGCGAT | 0.999 |
| AAAGACCTTT | 1 |
| ACATGTTATG | 0.982 |
| CAAATCCGAC | 1.25 |
| TTTTTGTGC | 0.991 |
| GGCGAGCCTT | 1.02 |
| CAGGTCGGGA | 0.971 |
| AAGCGAGCAA | 0.861 |
| CGGTCTATGA | 0.988 |
| CTAGTCCTGC | 0.975 |
| CGGGATTGTT | 0.996 |
| GTGCCGACCA | 1.02 |
| CTGTTTCGAA | 1.01 |
| GCTGAGTGGT | 0.985 |
| GCGCAATATT | 4.6 |
| AACAGGGCAG | 1.06 |
| CACAAATGCT | 0.989 |
| CGACTCTTGG | 0.968 |
| GGGAACCCGT | 0.98 |

| Sequence | switch fluorescence ratio |
| --- | --- |
| CACCCGTCCG | 1.08 |
| CCGCGTCCGT | 1.35 |
| GTCTAATTCG | 0.969 |
| AGTGGGCAGC | 0.991 |
| ACAGCCATCC | 1.32 |
| GCAATGATCT | 1.31 |
| GGGAATGCTG | 1.26 |
| AGTGCTACCA | 1 |
| TACGGAATG | 1.16 |
| AGTAGTGCA | 1.03 |
| CGGGGATTCA | 1.01 |
| AACGTTCTC | 1.06 |
| GTAACATTGT | 0.981 |
| AGGTGGGATA | 0.974 |
| CCATGAGATA | 1.03 |
| TCTAGGTCAC | 1.03 |
| TGCGATTCTC | 1.34 |
| TTGATGATCT | 0.979 |
| ACGCCTGAAC | 1.51 |
